Laboratory results published in PMC10726135.
The list shows a part of the results. At the low end of the ranking, values are background and their order means little. Measured with an extract: partners may take part in the binding.

Each sequence was assayed against T1, HNF4alpha2 (COS-7 nuclear extract) (UniProt P41235) (assay: protein-binding microarray). Conditions: COS-7 nuclear extract on double-stranded Agilent 4x180k PBM; binding buffer, salt, pH and temperature not given; high values mean tight binding; double strand, one strand shown; sequences stand for … in …GCCTAGGGAGATTAGAGTATCGGTCGA.
T1 sequence: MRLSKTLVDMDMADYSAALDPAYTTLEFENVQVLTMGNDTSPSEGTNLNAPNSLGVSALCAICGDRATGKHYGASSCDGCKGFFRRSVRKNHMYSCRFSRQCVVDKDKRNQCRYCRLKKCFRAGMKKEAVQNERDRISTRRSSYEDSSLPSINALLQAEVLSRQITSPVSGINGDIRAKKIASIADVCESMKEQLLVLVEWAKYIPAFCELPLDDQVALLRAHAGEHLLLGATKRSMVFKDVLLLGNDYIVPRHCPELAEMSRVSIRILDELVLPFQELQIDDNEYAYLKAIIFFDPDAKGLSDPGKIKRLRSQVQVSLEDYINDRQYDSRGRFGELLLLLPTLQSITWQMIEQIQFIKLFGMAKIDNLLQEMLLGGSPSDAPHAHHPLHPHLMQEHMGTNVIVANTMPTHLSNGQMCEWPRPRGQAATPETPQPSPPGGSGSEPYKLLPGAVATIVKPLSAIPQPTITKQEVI
GAGTGGTGACTGAAGTCCAACCCTCCGTTT showed a binding signal (log2 normalized intensity) of 1.06. Work on TTTCCCTGCCAGTTCCATGTAATCCCATGC yielded a binding signal (log2 normalized intensity) of 0.376. Work on GCCTTGCTTATCTGGGAGGGGGAGGTTTTG yielded a binding signal (log2 normalized intensity) of 0.199. AATAGTAAAGTATGTTTGTGCTGGTTACTA was tested, and the binding signal (log2 normalized intensity) was 0.471. Sequence GGTCGGGCGCGCGGGCCGGGAGGGGGACGC has a binding signal (log2 normalized intensity) of -1.1. AAAAGCAGCCATTAAGAAGCAAGTGTTTAA gave a binding signal (log2 normalized intensity) of -0.6. For GCACTATTATCCCCCTATCCCAAGACATCA, the binding signal (log2 normalized intensity) was 4.49. TTTGTCACTGCAAATGATGTCTCTCATTGG was tested, and the binding signal (log2 normalized intensity) was 1. For CCAGCCCACTTACCACCCACAGAGGGGGTT, the binding signal (log2 normalized intensity) was -1.08. With AATAAAGGAACTTACGAAGATAAATCAGAA the binding signal (log2 normalized intensity) was -0.825. CCCATTAGAACAAAGATCAAAGCAGTATCA gave a binding signal (log2 normalized intensity) of -1.08. Work on AAGAAGAGCTCAGTCACAGCAGTGGACTTT yielded a binding signal (log2 normalized intensity) of 6.61. CAAGGTACAGAGAGTTTAAGTAACTTCTCA showed a binding signal (log2 normalized intensity) of -1.16. TGAAGGTGAATTTCAAGAATCTAATCAGGC showed a binding signal (log2 normalized intensity) of -1.08. For GACTGGGTGAGGAAGGGTATGCATGGAATG, the binding signal (log2 normalized intensity) was 0.726. In the case of CGGTGTATGCTCTCAGTGCTAACACGTGGC, the binding signal (log2 normalized intensity) is reported as 0.692. For TTTGCCCTCAAGGAGTTTTAGATTAGGAGA, the binding signal (log2 normalized intensity) was -0.121. Work on GCCTGAGCATCTTATCAGCAGGAGACCTGA yielded a binding signal (log2 normalized intensity) of -1.04. Work on AGCATCTTATCAGCAGGAGACCTGAAACTA yielded a binding signal (log2 normalized intensity) of -0.954. CACTTTCCACTCTCTACTGATATGTCCTCC showed a binding signal (log2 normalized intensity) of 1.93. Work on GCTGCCATCCCACATTCCACAGACTCACTT yielded a binding signal (log2 normalized intensity) of -0.8. For TTGAGTGGTTTACTGCGTCACAAGTCACAA, the binding signal (log2 normalized intensity) was -1.09. For GTATTAACATGTAAATATGACCTTTGCTTT, the binding signal (log2 normalized intensity) was 6.44. For GCAGATGGGCAGCACTGTGATTTGTTCAGG, the binding signal (log2 normalized intensity) was 0.439. Sequence AGAGCCGGGAAAGGCCGGAGGGCGGGGCGG has a binding signal (log2 normalized intensity) of -0.0652. AGAGGACAGAAGAAGGAAAAGGCCTGACCT showed a binding signal (log2 normalized intensity) of -0.388. For AGTGAACTCAAAGAAAAGTTATGTTGGGCA, the binding signal (log2 normalized intensity) was 1.17. Work on ATTTTCTCACTCTAAAGGAAGGGATTATAA yielded a binding signal (log2 normalized intensity) of 0.856. TAACTTGAGTGTGCACCCTGGTCTCTCTTA was tested, and the binding signal (log2 normalized intensity) was 0.266. In the case of TTCTGTCTTTTTAATAGTGCATTATCAGTA, the binding signal (log2 normalized intensity) is reported as 1.74. In the case of CTAGCCACAGGGGAAACACAGACTCCAAAG, the binding signal (log2 normalized intensity) is reported as -1.06. For CTACTTTTAAAACGCTCAAATAAGCCTTGC, the binding signal (log2 normalized intensity) was -1.11. For GGACTGAACAGATATTGGCCAAAGGGCACA, the binding signal (log2 normalized intensity) was 2.95. GTCTATGTGTGCTTTCTTCATTAACTCTTG was tested, and the binding signal (log2 normalized intensity) was 1.03. Work on TGCGGCTTCTCATACTACTGTACTTTGCTC yielded a binding signal (log2 normalized intensity) of 5.39. ATACTTTGCTCTCCAAATTGGGGCCAACAG was tested, and the binding signal (log2 normalized intensity) was 0.369. GAGCATTTCTCTCCTAAGCAGGACAGCAGA gave a binding signal (log2 normalized intensity) of -1.06. TCAGCCCACAGGTCAATCCAGGTTGCTGCC was tested, and the binding signal (log2 normalized intensity) was -0.646. For CAGCATCTTCACCGTAAAGCCACCCCTTTC, the binding signal (log2 normalized intensity) was 2.64. Work on GAACAATGTCTAATGGTGGAATTTCAGTCA yielded a binding signal (log2 normalized intensity) of 0.935. Sequence ATTAGAGCACAATGTGGGGAGCACATGGCA has a binding signal (log2 normalized intensity) of -1.1. In the case of GTCCTTTAACAAGGACAAAGGTCAACAAAC, the binding signal (log2 normalized intensity) is reported as 6.04. GATGAGTGACCTTTGACCTCAGAGAGCCGG gave a binding signal (log2 normalized intensity) of 9.56. With TTCATTCTTTAAGGACCACATCAAAGGTCA the binding signal (log2 normalized intensity) was 4.7. In the case of ACTACCTCAAAGTTTTGTTATCTCTGCTTG, the binding signal (log2 normalized intensity) is reported as -1.1. Work on CACACCCCAAAAGGTCAATCTGGATTGTAC yielded a binding signal (log2 normalized intensity) of 3.23.
